Positions count from the first letter of the chain named. No constants are given. Whether binding was seen depends on the method and setting. In cells and extracts the contact can be indirect. Some results given as binding are weak or reduced against the parent protein; the word gives no strength. Sequences can lack the tags named with a protein.
Assays:
Assay in all cases: co-IP; lysates of HeLa cells stably expressing FLAG-HA-NLS-fused canine BRCA2 peptides, Benzonase-treated; FLAG M2 affinity agarose at 4 °C overnight; washed with 20 mM Tris-HCl pH 8.0, 150 mM KCl, 2 mM MgCl2, 10% glycerol; blots for endogenous RAD51 and PP2A-C subunit
[1] = target: T1, FLAG-HA-NLS-fused cΔHCR-BRC2 (canine BRCA2 1134–1248 aa) (canine (Canis lupus familiaris)) (UniProt Q8MKI9)
T1 sequence: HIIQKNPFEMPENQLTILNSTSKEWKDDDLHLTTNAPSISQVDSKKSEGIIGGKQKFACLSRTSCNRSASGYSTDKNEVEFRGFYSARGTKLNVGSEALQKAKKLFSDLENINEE

Chains of the proteins cited; added tags and fusions are not shown.
UniProt Q06609: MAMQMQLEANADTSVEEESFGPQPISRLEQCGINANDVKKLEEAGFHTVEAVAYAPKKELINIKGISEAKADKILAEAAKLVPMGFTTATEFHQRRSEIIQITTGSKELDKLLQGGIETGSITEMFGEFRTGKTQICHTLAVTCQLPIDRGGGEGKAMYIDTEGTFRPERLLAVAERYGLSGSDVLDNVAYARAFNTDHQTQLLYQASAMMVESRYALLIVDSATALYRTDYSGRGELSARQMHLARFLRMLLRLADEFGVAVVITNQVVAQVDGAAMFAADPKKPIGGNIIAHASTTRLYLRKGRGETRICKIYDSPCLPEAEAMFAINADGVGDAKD

[2] = target: T2, FLAG-HA-NLS-fused cBRC1-HCR-BRC2 (canine BRCA2 993–1248 aa) (canine (Canis lupus familiaris)) (UniProt Q8MKI9)
T2 sequence: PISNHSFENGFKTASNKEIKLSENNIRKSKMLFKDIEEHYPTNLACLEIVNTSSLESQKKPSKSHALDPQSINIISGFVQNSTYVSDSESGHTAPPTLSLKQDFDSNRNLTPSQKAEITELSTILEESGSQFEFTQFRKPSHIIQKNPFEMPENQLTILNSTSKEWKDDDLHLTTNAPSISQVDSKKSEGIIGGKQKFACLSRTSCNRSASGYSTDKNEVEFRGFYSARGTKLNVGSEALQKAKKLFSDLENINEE

[3] = target: T3, FLAG-HA-NLS-fused cBRC1-HCR-BRC2 S1114P (canine (Canis lupus familiaris)) (UniProt Q8MKI9)
T3 sequence: T2 sequence with S122P

[4] = target: T4, FLAG-HA-NLS-fused cBRC1-ΔHCR-BRC2 (canine BRCA2 993–1248 aa deleted with 1101–1133 aa) (canine (Canis lupus familiaris)) (UniProt Q8MKI9)
T4 sequence: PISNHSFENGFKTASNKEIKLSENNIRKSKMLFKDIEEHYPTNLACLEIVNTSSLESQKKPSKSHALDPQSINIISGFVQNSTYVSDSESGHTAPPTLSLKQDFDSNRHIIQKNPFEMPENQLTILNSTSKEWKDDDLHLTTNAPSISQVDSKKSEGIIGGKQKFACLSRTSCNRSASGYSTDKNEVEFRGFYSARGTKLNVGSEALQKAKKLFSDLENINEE

[5] = target: T5, FLAG-HA-NLS-fused cHCR-BRC2 (canine BRCA2 1090–1248 aa) (canine (Canis lupus familiaris)) (UniProt Q8MKI9)
T5 sequence: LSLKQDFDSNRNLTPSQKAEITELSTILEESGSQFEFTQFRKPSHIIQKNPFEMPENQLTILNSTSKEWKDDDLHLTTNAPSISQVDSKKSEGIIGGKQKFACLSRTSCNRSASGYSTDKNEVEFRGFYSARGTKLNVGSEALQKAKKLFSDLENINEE

[6] = target: T6, FLAG-HA-NLS-fused cBRC1-HCR (canine BRCA2 993–1139 aa) (canine (Canis lupus familiaris)) (UniProt Q8MKI9)
T6 sequence: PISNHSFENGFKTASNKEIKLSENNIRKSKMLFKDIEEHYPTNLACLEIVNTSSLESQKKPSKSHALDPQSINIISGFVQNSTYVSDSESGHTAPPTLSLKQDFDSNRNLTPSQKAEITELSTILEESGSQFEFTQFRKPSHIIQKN

[7] = target: T7, FLAG-HA-NLS-fused cBRC1-HCR-BRC2 T1115P (canine (Canis lupus familiaris)) (UniProt Q8MKI9)
T7 sequence: T2 sequence with T123P

[8] = target: T8, FLAG-HA-NLS-fused cBRC1-ΔHCR (canine BRCA2 993–1100 aa) (canine (Canis lupus familiaris)) (UniProt Q8MKI9)
T8 sequence: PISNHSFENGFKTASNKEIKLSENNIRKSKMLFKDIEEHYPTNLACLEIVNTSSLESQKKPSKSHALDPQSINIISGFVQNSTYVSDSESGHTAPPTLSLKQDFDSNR

[9] = target: T9, FLAG-HA-NLS-fused cBRC1-HCR-BRC2 I1110M (canine (Canis lupus familiaris)) (UniProt Q8MKI9)
T9 sequence: T2 sequence with I118M

Measured: binding

endogenous RAD51 (HeLa cells) (from UniProt Q06609 1-339)
binds: all assays above

Source: article PMC9959916
